# Measurements published in article PMC4336329 (PLoS ONE, 2015).
# In all, about 310,000 compounds went through this assay and about 14,000 (4.5%) showed an effect of 50% or more. Effects have a minus sign here. This is one part of the list.
# Molecular target: human ether-à-go-go-related gene (hERG) potassium channel (human, UniProt Q12809)
# Assay: primary screen, population patch clamp on CHO cells stably expressing hERG
# 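Also: peak tail current of the secondary pulse compared with the same well before compound.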
# Chain of human ether-à-go-go-related gene (hERG) potassium channel (Q12809 whole entry, looked up): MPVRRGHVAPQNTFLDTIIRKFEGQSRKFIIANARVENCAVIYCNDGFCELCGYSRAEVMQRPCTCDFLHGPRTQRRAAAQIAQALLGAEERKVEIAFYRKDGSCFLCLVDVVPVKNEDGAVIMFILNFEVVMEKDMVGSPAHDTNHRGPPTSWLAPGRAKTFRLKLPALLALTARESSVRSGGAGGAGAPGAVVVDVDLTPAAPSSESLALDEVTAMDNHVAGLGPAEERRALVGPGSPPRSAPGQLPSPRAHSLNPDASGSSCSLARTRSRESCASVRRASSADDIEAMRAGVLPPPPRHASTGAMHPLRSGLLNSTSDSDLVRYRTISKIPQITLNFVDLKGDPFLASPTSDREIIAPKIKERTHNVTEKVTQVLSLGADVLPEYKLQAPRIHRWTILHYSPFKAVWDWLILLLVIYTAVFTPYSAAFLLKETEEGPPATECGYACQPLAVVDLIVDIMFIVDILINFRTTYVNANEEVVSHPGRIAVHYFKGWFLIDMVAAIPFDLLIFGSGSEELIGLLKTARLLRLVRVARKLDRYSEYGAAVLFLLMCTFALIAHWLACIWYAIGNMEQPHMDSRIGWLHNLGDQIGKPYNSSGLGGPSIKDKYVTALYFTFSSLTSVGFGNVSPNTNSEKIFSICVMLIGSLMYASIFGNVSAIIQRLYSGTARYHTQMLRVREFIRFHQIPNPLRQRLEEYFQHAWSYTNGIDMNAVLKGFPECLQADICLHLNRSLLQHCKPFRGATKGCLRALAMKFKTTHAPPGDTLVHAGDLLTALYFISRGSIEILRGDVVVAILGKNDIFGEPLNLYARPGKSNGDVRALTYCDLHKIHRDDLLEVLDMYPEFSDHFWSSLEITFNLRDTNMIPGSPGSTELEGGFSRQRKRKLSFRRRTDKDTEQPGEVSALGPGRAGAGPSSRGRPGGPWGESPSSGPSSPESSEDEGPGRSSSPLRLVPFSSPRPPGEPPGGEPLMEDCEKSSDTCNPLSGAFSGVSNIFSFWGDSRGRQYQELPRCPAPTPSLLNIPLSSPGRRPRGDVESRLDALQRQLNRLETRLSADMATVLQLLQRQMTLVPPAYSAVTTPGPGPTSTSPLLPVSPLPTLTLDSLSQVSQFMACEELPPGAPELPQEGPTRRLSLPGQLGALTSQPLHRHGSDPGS
row,SMILES,"hERG current change (%, negative = inhibition) at 10uM"
1,O=C(NCC1CCCO1)C1c2ccccc2Oc2ccccc21 (stereo not drawn),31.4%
2,CN(C)C(=O)c1ccc(NS(=O)(=O)c2ccc3c(c2)OCCO3)cc1,5.35%
3,O=C(NN1C(=O)/C(=C/c2ccc(O)cc2)SC1=S)c1cccc(O)c1,12.7%
4,COc1cccc(NC(=O)CSc2ncnc3c2cnn3Cc2ccccc2)c1,-6.53%
5,CC(C)C(=O)Nc1ccc(C(=O)N/N=C/C2CC3C=CC2C3)cc1 (stereo not drawn),21.1%
6,COCCCNC(=O)c1ccc(Cn2c(=O)c3ccccc3n(Cc3ccc(C)cc3)c2=O)cc1,6.54%
7,O=C(CNc1cc(S(=O)(=O)N2CCOCC2)ccc1NCC1CCCO1)Nc1ccc(C(F)(F)F)cc1 (stereo not drawn),-30.4%
8,O=C(c1ccco1)N1CCN(C(=O)C2CC(=O)N(c3ccccc3)C2)CC1 (stereo not drawn),-41.3%
9,O=C(NN1C(=O)C2C(c3ccccc3)C=CC(c3ccccc3)C2C1=O)c1ccncc1 (stereo not drawn),-13.9%
10,O=C1NC(=O)C2(CCCc3ccccc32)N1 (stereo not drawn),12.8%
11,O=C(CSc1nnc(-c2ccc3c(c2)OCO3)o1)Nc1ncc(C(F)(F)F)cc1Cl,-5.3%
12,NC(=O)CSC1=Nc2ccccc2C2=NC(CCC(=O)NCc3ccc(F)cc3)C(=O)N12 (stereo not drawn),15.1%
13,COCC1CCN(Cc2cn(Cc3ccccc3)nc2-c2cc3ccccc3o2)CC1,-76.6%
14,CCOC(=O)c1ccccc1NC(=O)CSc1nc2ccccc2c(=O)[nH]1,30.1%
15,COc1nc(NC(C)=O)nc(C)c1Br,-1.69%
16,COc1ccccc1C(=O)COC(=O)CNS(=O)(=O)c1ccc(C)c(C)c1,-10.9%
17,COCCCn1cnc2c(c1=O)c1nc3ccccc3nc1n2-c1ccccc1,-56.6%
18,CCN(CC)S(=O)(=O)c1ccc(NC(=O)c2ccccn2)cc1,2.93%
19,CC(=O)Nc1ccc(Oc2cncc(Cl)c2)nc1,9.44%
20,CC(=O)Nc1ccc(N2C(=O)CSC2c2cccc(Br)c2)cc1 (stereo not drawn),3.62%
21,Cc1cccc(N(CC(=O)NC(C)C)C(=O)CCC(=O)Nc2nccs2)c1,5.88%
22,Cc1c(N(C)C)c(=O)n(-c2ccccc2)n1C,19.1%
23,O=C(NNc1nc2c(F)cc(F)cc2s1)C1=COCCO1,6.2%
24,O=C1OCC/C1=C\c1ccc2c(c1)OCO2,20.6%
